Test results published in the supplement of paper PMC6206098.
± gives the uncertainty stated by the source. The sequences are guide strands of siRNAs; only the seed at positions 2 to 7 varies.

Columns and labels:
[1] = test system: 3LL; test: cell viability relative to siNT1 control; higher = less toxic; details: concentration: 10 nM; 96 h; Mus musculus;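 also: Luminescence-based viability of cells reverse transfected in 384-well plates with lipid-complexed siRNAs built on a non-toxic 19mer backbone whose passenger strand carries 2′-O-methyl groups at positions 1 and 2, triplicates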
Description: (§1)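 Arrayed screen of 4096 siRNA duplexes, each carrying one of all possible 6mer seeds at guide-strand positions 2-7 in a fixed neutral 19mer scaffold (constant flanks: U at position 1, then ACAUGUAAACCA, plus a 3' AA overhang). The passenger strand is 2'-O-methylated at positions 1-2 so only the guide strand loads into RISC. Duplexes were reverse-transfected at 10 nM with RNAiMAX in triplicate in 384-well plates; viability was read by CellTiter-Glo ATP content 96 h after transfection. Values are % viability normalised to lipid-only wells (HeyA8, H460, M565) or to siNT1 (3LL).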

[2] = test system: H460; test: cell viability relative to lipid-only control; HeyA8 human ovarian and H460 human lung cancer; M565 mouse liver and 3LL mouse lung cancer; siNT1 is a non-toxic control siRNA; higher = less toxic; details: concentration: 10 nM; 96 h; Homo sapiens
Description: as §1

[3] = test system: HeyA8; test: as above; details: concentration: 10 nM; 96 h; Homo sapiens
Description: as §1

[4] = test system: M565; test: as above; details: concentration: 10 nM; 96 h; Mus musculus
Description: as §1
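For cell viability relative to lipid-only control in this document: reverse lipid transfection in 384-well plates, in triplicate, of duplexes on a non-toxic 19mer backbone with passenger strand 2′-O-methylated at positions 1 and 2, luminescence viability read-out.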

| Sequence | cell viability [1] | cell viability [2] | cell viability [3] | cell viability [4] |
| --- | --- | --- | --- | --- |
| UCUGGUGACAUGUAAACCAAA | 98 ± 20% | 79 ± 2.5% | 84.7 ± 4% | 60.3 ± 9.5% |
| UUGACAGACAUGUAAACCAAA | 54.8 ± 6% | 59.3 ± 3.9% | 90.2 ± 12% | 44 ± 4.7% |
| UAAGCAUACAUGUAAACCAAA | 79.2 ± 7% | 61.6 ± 6.8% | 79.1 ± 6.9% | 43 ± 3.1% |
| UCCACUUACAUGUAAACCAAA | 104 ± 28% | 61.5 ± 3.8% | 75.1 ± 9.2% | 62 ± 23% |
| UGUCCUGACAUGUAAACCAAA | 39.3 ± 9.4% | 73 ± 8.7% | 59.1 ± 6.5% | 11.3 ± 1.3% |
| UUCUACCACAUGUAAACCAAA | 25.2 ± 1.4% | 31.4 ± 2.6% | 32.4 ± 2.9% | 10.6 ± 0.42% |
| UUAAUGUACAUGUAAACCAAA | 36.5 ± 5.8% | 36.6 ± 2.4% | 69.5 ± 2.4% | 34.5 ± 8.8% |
| UGGGGCAACAUGUAAACCAAA | 7.69 ± 0.59% | 11.4 ± 0.82% | 1.71 ± 0.29% | 21.4 ± 2.5% |
| UAUCCACACAUGUAAACCAAA | 82.6 ± 14% | 43.8 ± 6.6% | 73 ± 4.6% | 92.7 ± 8.4% |
| UUUUUAAACAUGUAAACCAAA | 92.9 ± 4.9% | 65.8 ± 12% | 96.9 ± 7.9% | 109 ± 7% |
| UUCAUGGACAUGUAAACCAAA | 66.8 ± 20% | 41.3 ± 2.8% | 73.5 ± 10% | 26.4 ± 3% |
| UUUCUGCACAUGUAAACCAAA | 5.86 ± 1.3% | 41 ± 2.5% | 47.5 ± 2.1% | 53.4 ± 4.5% |
| UGACCGGACAUGUAAACCAAA | 37.6 ± 4.9% | 63.5 ± 9.5% | 64.5 ± 12% | 32.2 ± 5.7% |
| UCAGAUCACAUGUAAACCAAA | 93.6 ± 18% | 38.2 ± 1.6% | 45.7 ± 7% | 28.3 ± 2.2% |
| UACGCUUACAUGUAAACCAAA | 61.9 ± 11% | 107 ± 2.3% | 73.3 ± 7.8% | 54.8 ± 6.7% |
| UCAAACAACAUGUAAACCAAA | 89.5 ± 15% | 67.2 ± 8.9% | 79.2 ± 10% | 79.1 ± 12% |
| UUUUCUGACAUGUAAACCAAA | 92.1 ± 6% | 70.6 ± 5% | 93.9 ± 4.2% | 101 ± 4.8% |
| UUCUCGCACAUGUAAACCAAA | 50.1 ± 2.6% | 47.7 ± 3.4% | 67.3 ± 12% | 50.5 ± 1.6% |
| UGCUAGGACAUGUAAACCAAA | 58.2 ± 12% | 44.1 ± 2.2% | 59.9 ± 4.5% | 26.9 ± 9% |

| Sequence | cell viability [1] | cell viability [2] | cell viability [3] | cell viability [4] |
| --- | --- | --- | --- | --- |
| UAAAUUCACAUGUAAACCAAA | 99.7 ± 10% | 60 ± 1.6% | 89.7 ± 6.9% | 104 ± 9.7% |
| UCACGCGACAUGUAAACCAAA | 100 ± 12% | 23.8 ± 5.9% | 85.9 ± 5.3% | 67.7 ± 9.2% |
| UGUCUGCACAUGUAAACCAAA | 6.42 ± 3.9% | 15.8 ± 1.3% | 5.88 ± 0.93% | 8.43 ± 3.1% |
| UGACAGCACAUGUAAACCAAA | 25 ± 2.6% | 20.7 ± 3.1% | 2.94 ± 0.64% | 6.78 ± 2.7% |
| UUAAGAAACAUGUAAACCAAA | 88.4 ± 12% | 67.8 ± 5.6% | 88.1 ± 4.7% | 98.3 ± 11% |
| UACGCGAACAUGUAAACCAAA | 91.5 ± 7.2% | 69.1 ± 18% | 85.2 ± 10% | 74.4 ± 5.3% |
| UUUACUCACAUGUAAACCAAA | 92.2 ± 6% | 95.4 ± 6% | 73.2 ± 1.7% | 40.3 ± 7.5% |
| UAGAGGUACAUGUAAACCAAA | 21 ± 3.3% | 53.3 ± 6.8% | 37.3 ± 2.3% | 6.78 ± 0.93% |
| UGUGCUUACAUGUAAACCAAA | 69.8 ± 5.5% | 72.2 ± 21% | 83.9 ± 7.7% | 60.5 ± 11% |
| UUUCGCAACAUGUAAACCAAA | 94.2 ± 4.1% | 83.6 ± 8.9% | 100 ± 4.2% | 86 ± 9% |
| UGCUCAUACAUGUAAACCAAA | 82.1 ± 14% | 73.6 ± 19% | 73.4 ± 3.4% | 81.6 ± 6.6% |
| UACCUAAACAUGUAAACCAAA | 82.5 ± 1.5% | 60.9 ± 6.2% | 84 ± 9.3% | 80.3 ± 15% |
| UGGCGGAACAUGUAAACCAAA | 37.2 ± 4.1% | 32.4 ± 5.7% | 4.88 ± 0.35% | 30.1 ± 3.9% |
| UUCUCUUACAUGUAAACCAAA | 88 ± 8.8% | 55.17 ± 0.55% | 78.3 ± 5.2% | 79.5 ± 5.1% |
| UAUCAUAACAUGUAAACCAAA | 123 ± 13% | 28.7 ± 6.1% | 97.2 ± 2.4% | 96.7 ± 11% |
| UUUGACGACAUGUAAACCAAA | 99.3 ± 3% | 70.3 ± 3.4% | 99.9 ± 6% | 72.2 ± 12% |
| UGCAUCUACAUGUAAACCAAA | 57.4 ± 16% | 77.6 ± 16% | 42.7 ± 1.2% | 24.3 ± 3.5% |
| UUUUUCUACAUGUAAACCAAA | 96.6 ± 6.2% | 64.9 ± 2.1% | 70.9 ± 5.5% | 109 ± 8.4% |
| UACCGACACAUGUAAACCAAA | 66.4 ± 5.8% | 87.3 ± 5.6% | 68.7 ± 7.1% | 38.4 ± 7.6% |

| Sequence | cell viability [1] | cell viability [2] | cell viability [3] | cell viability [4] |
| --- | --- | --- | --- | --- |
| UGGGUGAACAUGUAAACCAAA | 47.9 ± 5.3% | 9.51 ± 1.1% | 3.12 ± 0.19% | 25.7 ± 1.6% |
| UAAUUAUACAUGUAAACCAAA | 105 ± 16% | 55.7 ± 5.8% | 50.4 ± 5.9% | 82.2 ± 13% |
| UUCCUGAACAUGUAAACCAAA | 102 ± 18% | 78.7 ± 3% | 90.5 ± 11% | 117 ± 22% |
| UUUGAAAACAUGUAAACCAAA | 97.4 ± 4.1% | 74.6 ± 6.3% | 104 ± 2.4% | 81.2 ± 5.5% |
| UCGGCUGACAUGUAAACCAAA | 95.5 ± 15% | 53.5 ± 4.3% | 29.5 ± 1.3% | 46.1 ± 3% |
| UCUGUAGACAUGUAAACCAAA | 92.3 ± 14% | 63 ± 7.3% | 78.3 ± 8.3% | 59.9 ± 12% |
| UCGGUCGACAUGUAAACCAAA | 88.6 ± 8.9% | 43.3 ± 3.5% | 54 ± 4.7% | 57 ± 8.8% |
| UCAGUUCACAUGUAAACCAAA | 92.5 ± 9.6% | 53.8 ± 1.5% | 64.3 ± 4.4% | 13.3 ± 2.1% |
| UCAGUCGACAUGUAAACCAAA | 86.9 ± 16% | 51.1 ± 6.4% | 71.8 ± 8.5% | 47.1 ± 4.2% |
| UUAAUUGACAUGUAAACCAAA | 89.7 ± 10% | 74.9 ± 18% | 92.3 ± 11% | 83.2 ± 11% |
| UACGCACACAUGUAAACCAAA | 62.9 ± 5.1% | 84.9 ± 18% | 68.9 ± 8.5% | 47.8 ± 7.9% |
| UUAGCAUACAUGUAAACCAAA | 42.3 ± 5.9% | 59.7 ± 4.7% | 73.2 ± 1.1% | 29.7 ± 2.6% |
| UACUGAAACAUGUAAACCAAA | 93.3 ± 8.8% | 75.1 ± 15% | 107 ± 14% | 75.5 ± 5.8% |
| UUCGCUAACAUGUAAACCAAA | 107 ± 15% | 77.4 ± 14% | 89.9 ± 9.8% | 104 ± 2% |
| UUCAAUCACAUGUAAACCAAA | 61.9 ± 13% | 60.6 ± 5.7% | 65.7 ± 7.5% | 91.4 ± 2.5% |
| UAUCCGUACAUGUAAACCAAA | 91.2 ± 6.6% | 73.7 ± 3.4% | 74.3 ± 6.2% | 58.8 ± 14% |
| UAUAGGCACAUGUAAACCAAA | 9.98 ± 3.3% | 45.5 ± 4% | 24.2 ± 2.1% | 21.3 ± 6.8% |
| UACUGUCACAUGUAAACCAAA | 74.3 ± 5.2% | 71.8 ± 26% | 78.1 ± 9.7% | 57.7 ± 14% |
| UGUCCCAACAUGUAAACCAAA | 30.3 ± 2.7% | 34.9 ± 4.5% | 18.2 ± 1.1% | 3.82 ± 2.4% |
